According to the supplement of paper PMC3334620:
Whole data set: some 33,000 sequences, median “E-score (-0.5 to 0.5)” near -0.012, cut for the highest 2% near 0.29. Some of the results follow.

Each sequence was assayed against T1, Ybr033w (UniProt P38073) (assay: PBM E-score (8-mer binding enrichment) (E-score (-0.5 to 0.5)); higher = stronger / more preferred TF binding; most listed sequences are background and not binding sites). Conditions: protein concentration: 200 nM; construct: GST-full length.
T1 sequence: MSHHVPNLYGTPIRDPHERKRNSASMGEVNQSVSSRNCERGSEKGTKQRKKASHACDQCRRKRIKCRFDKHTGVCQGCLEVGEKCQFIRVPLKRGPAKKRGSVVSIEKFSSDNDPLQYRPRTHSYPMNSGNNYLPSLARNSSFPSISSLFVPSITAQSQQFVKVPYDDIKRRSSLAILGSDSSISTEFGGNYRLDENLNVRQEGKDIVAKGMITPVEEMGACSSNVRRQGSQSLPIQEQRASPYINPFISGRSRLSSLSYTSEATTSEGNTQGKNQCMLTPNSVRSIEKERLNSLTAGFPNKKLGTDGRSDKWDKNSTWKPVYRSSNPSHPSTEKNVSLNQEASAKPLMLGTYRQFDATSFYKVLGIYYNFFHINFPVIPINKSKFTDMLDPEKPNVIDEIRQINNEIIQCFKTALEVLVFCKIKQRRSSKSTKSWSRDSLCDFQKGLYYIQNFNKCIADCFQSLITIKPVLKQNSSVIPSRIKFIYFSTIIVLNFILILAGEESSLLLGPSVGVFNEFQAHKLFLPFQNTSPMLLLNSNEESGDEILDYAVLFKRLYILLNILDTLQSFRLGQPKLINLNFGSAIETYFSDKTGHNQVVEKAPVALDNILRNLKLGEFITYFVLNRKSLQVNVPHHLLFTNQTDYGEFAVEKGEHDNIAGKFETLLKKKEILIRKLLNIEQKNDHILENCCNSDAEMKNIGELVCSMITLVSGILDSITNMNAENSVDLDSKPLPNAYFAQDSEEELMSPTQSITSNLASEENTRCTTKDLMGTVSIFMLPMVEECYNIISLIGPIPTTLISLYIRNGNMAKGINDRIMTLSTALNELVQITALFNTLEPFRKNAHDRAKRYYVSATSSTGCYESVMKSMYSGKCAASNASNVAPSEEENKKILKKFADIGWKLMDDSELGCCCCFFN
Summary of the method: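 Using PURExpress in vitro transcription/translation, GST-tagged yeast transcription factors were made in full-length or DNA-binding-domain form. These were applied at about 100-200 nM to double-stranded universal all-10-mer Agilent arrays, and bound protein was detected with fluorescent anti-GST. Scans were normalised with masliner before the Universal PBM Analysis Suite assigned E-scores to ungapped eight-base words pooled with their reverse complements.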

Row | Sequence | PBM E-score
1 | CAACAGGG | -0.0175
2 | TAAGAATA | 0.0479
3 | ATGCGTCG | -0.119
4 | ACAGAGTG | 0.0548
5 | AGAATAAA | 0.312
6 | AGGGACAT | 0.0463
7 | GACGGCTA | 0.0615
8 | GTGCCTAA | -0.0516
9 | AATGATAT | 0.298
10 | GCAATAGC | 0.0225
11 | CTTCTTCA | 0.0645
12 | GGTCGACC | 0.0932
13 | ATCAGTAA | 0.242
14 | CGCAATGA | 0.132
15 | CATGCCCG | -0.0453
16 | GCAAAATA | 0.287
17 | CCGTGGTA | -0.024
18 | CCAGAAAA | 0.089
19 | CTAATGAC | -0.179
20 | AACGGCCC | -0.3
21 | CATCATAA | 0.175
22 | CCGATAGA | -0.0881
23 | CAACAACG | 0.00121
24 | CCTTTAGA | -0.0803
25 | CAGTAAAA | 0.187

Row | Sequence | PBM E-score
26 | ACGGTATC | 0.00129
27 | ATCGTGAA | -0.0115
28 | CGGCAAGC | -0.185
29 | CCGCACAG | -0.133
30 | ATTCATAA | 0.188
31 | AGGCAATG | -0.0925
32 | CTCGTGCC | -0.244
33 | CCCTGGCG | -0.258
34 | CTGCTGGA | -0.121
35 | CCATGACA | -0.0124
36 | CAGTATCG | 0.00581
37 | ACAAGCCA | -0.0833
38 | ACCTATTA | 0.145
39 | ATAAACTC | 0.279
40 | CAACTTGG | 0.0321
41 | AGGGTGAG | -0.184
42 | AGAGTACT | -0.0915
43 | CGACATTC | 0.0043
44 | ATATCCTC | 0.0836
45 | CTATATCC | 0.159
46 | GACCTTAA | -0.0604
47 | AGGGTGAC | -0.117
48 | AACTATCT | 0.0736
49 | AACTGAAT | -0.0881
50 | CTCGTCGA | 6e-05

Row | Sequence | PBM E-score
51 | GCCTCCCC | -0.292
52 | AAGGGGTC | -0.323
53 | GCAGACGC | -0.17
54 | GAGGTACA | 0.0115
55 | CTATTCGC | 0.0205
56 | GTAATCAA | 0.271
57 | AGTCCTGC | -0.108
58 | CTGAGCAC | -0.0928
59 | CCCCCTGC | -0.375
60 | AATCAATT | 0.247
61 | AGCTAGCG | -0.0886
62 | ATACGTCC | -0.126
63 | AGGCACTA | -0.0554
64 | AGGATACC | -0.111
65 | AGTTTAGA | 0.146
66 | ACAGATCC | 0.114
67 | ACAAGTCG | -0.187
68 | AGGTGGAA | 0.126
69 | CCTATAAG | -0.00305
70 | AAACACGT | -0.0842
71 | ATTGGCTA | 0.117
72 | GTAACGTA | 0.0344
73 | CTTTATCC | 0.172
74 | CTCGGCAA | -0.167
75 | ACCGAAGA | 0.217

Row | Sequence | PBM E-score
76 | CAAGCAAC | 0.0914
77 | AATTCTAG | 0.198
78 | GTGACCAA | 0.2
79 | CTCTGGCC | -0.15
80 | ATGATACG | 0.116
81 | GAAGTCCC | -0.372
82 | GACGGGAA | -0.0918
83 | AGATTTCG | 0.124
84 | AGAGTTGA | 0.0245
85 | CATTTCTA | 0.222
86 | GAACCCAC | -0.0814
87 | ACCGGCCG | -0.247
88 | TGTACCAA | 0.0592
89 | AAAAGAGG | -0.0444
90 | CGACGCCG | -0.13
91 | GAATTCGC | -0.0455
92 | ATGCTCCA | -0.124
93 | AAGGACGA | -0.126
94 | CAATCTCG | -0.0177
95 | GACGTATC | -0.12
96 | AGGTATAC | 0.147
97 | ACCGGGCC | -0.142
98 | ACCGACAC | -0.0337
99 | GCTTTGAC | 0.0363
100 | TAGTAGGA | -0.00612

Row | Sequence | PBM E-score
101 | TCCAACAA | 0.0559
102 | ACTAACAA | 0.0432
103 | CCCTACCC | -0.218
104 | GACGTGCA | -0.0902
105 | AGGCCTCG | -0.308
106 | AATATTCG | 0.161
107 | AGATGACT | -0.0856
108 | GCAAACGC | -0.0432
109 | CTACGGGC | -0.336
110 | TCAAGTGA | -0.0425
111 | TGGGAAAA | 0.316
112 | CAATGCGC | 0.0638
113 | TCTCAGAA | -0.0826
114 | AATATTGA | 0.329
115 | AAGCATTA | 0.0682
116 | CTGGGGAA | -0.3
117 | AGAACCTC | -0.171
118 | TAATTGTA | 0.279
119 | CCGTAGCG | 0.0186
120 | ATCATCAC | 0.12
121 | ACTTCGCA | 0.0372
122 | ACACCGTA | -0.0776
123 | CAGGTAGC | -0.108
124 | CCTCATCC | -0.335
125 | CTCTCATA | 0.0382

Row | Sequence | PBM E-score
126 | GTTCGGTA | -0.0289
127 | TGGCCGAA | -0.0761
128 | AACGGATG | -0.0912
129 | CGTCTACA | -0.162
130 | GTTACATA | 0.151
131 | ACTTTGTG | 0.148
132 | ACGCGGGA | -0.00531
133 | GCCTGCAC | -0.251
134 | CGCCACGA | -0.129
135 | ACCAAATA | 0.232
136 | AGTCGCTC | 0.0213
137 | ATCTGAAC | 0.0865
138 | ACTTCTGG | -0.0772
139 | CAGCATTC | 0.078
140 | CATGACAC | 0.168
141 | CGATGCTA | -0.0636
142 | CAGGGTGA | -0.214
143 | CGTGCGCA | -0.213
144 | CCCTAAGC | -0.123
145 | CCAACATA | 0.257
146 | CAAGTCTG | -0.193
147 | ATCGTCCC | 0.0512
148 | AAGCGTCG | -0.209
149 | GTTGCCGA | 0.00885
150 | GACCGAGA | 0.00789

Row | Sequence | PBM E-score
151 | AACCTCGC | 0.00532
152 | CCCTCCAG | -0.248
153 | TAACTTGA | 0.164
154 | CGTCTTCC | -0.215
155 | GCCATCAA | -0.129
156 | CCTACGCA | -0.0463
157 | AGCCTACT | -0.0215
158 | CTCCATTA | 0.0023
159 | CGTGCCAG | -0.266
160 | AAGGTGAT | 0.0131
161 | AGGCAGCA | 0.0126
162 | CCTTAGAC | -0.0534
163 | ACCACAAA | 0.105
164 | CCGACGAC | 0.00324
165 | AATATAAT | 0.236
166 | CGGCTCGC | 0.0918
167 | TTAGCGAA | 0.0434
168 | CATTGAAG | -0.0671
169 | CAGCAAAC | -0.0765
170 | GATATGTA | 0.22
171 | CCCTACTA | -0.101
172 | CGATACGA | -0.104
173 | ACTTTTAT | 0.167
174 | GGGTAATA | 0.103
175 | ATCATTTG | 0.22

Row | Sequence | PBM E-score
176 | TAGCGTGA | 0.00864
177 | TGGGTACA | -0.0517
178 | AATAAGAT | 0.142
179 | CCCCTACC | -0.257
180 | ACAAAAAG | 0.106
181 | ATGCTGAC | 0.0401
182 | GAAGTAGA | 0.238
183 | ACAAGCAT | 0.09
184 | AGCCACAG | -0.314
185 | TCACTGCA | 0.208
186 | TAAACGGA | 0.266
187 | CGATGCTC | -0.222
188 | CTTACTGA | 0.0283
189 | CGTTATGC | 0.0079
190 | CGGCCTAC | 0.00798
191 | ACTTTGTA | 0.275
192 | CCCGATAG | -0.119
193 | ATCTACAC | 0.132
194 | CAATTCCA | -0.0696
195 | CAGAAAGC | -0.0867
196 | ACGTCGAA | 0.0628
197 | GGTTTAAA | 0.0983
198 | AAGTCCGT | -0.293
199 | GTGCACAA | -0.0193
200 | AGTACCGC | -0.0772

Row | Sequence | PBM E-score
201 | ATGGTCGG | -0.0504
202 | ATTGTCTG | 0.221
203 | AGGCATAA | -0.0986
204 | CTGCACTA | 0.139
205 | CAATATAG | 0.115
206 | AAATTACT | 0.333
207 | CTGCTAGC | -0.137
208 | CTGAATTA | 0.219
209 | AGCGCAAT | 0.142
210 | AACTCTGA | 0.162
211 | AGATCTTG | -0.00564
212 | ACTAGGAC | 0.0302
213 | GAAAGTGA | -0.02
214 | AACCAGAA | 0.0437
215 | CCGACCAC | -0.0258
216 | ATATTTGC | 0.222
217 | AGCAGATC | 0.152
218 | ATCGCAGG | -0.0752
219 | GAGCGTGC | -0.0791
